Measurements published in paper PMC4336329 (PLoS ONE, 2015).
Hit rate of the full screen: of about 310,000 compounds, about 2,200 (0.71%) showed an effect of 50% or more. Effects have a minus sign here. This is one part of the list.

The compounds below were run against human ether-à-go-go-related gene (hERG) potassium channel (human, UniProt Q12809) (assay: primary screen, population patch clamp on CHO cells stably expressing hERG).
Chain of human ether-à-go-go-related gene (hERG) potassium channel (Q12809 whole entry, looked up): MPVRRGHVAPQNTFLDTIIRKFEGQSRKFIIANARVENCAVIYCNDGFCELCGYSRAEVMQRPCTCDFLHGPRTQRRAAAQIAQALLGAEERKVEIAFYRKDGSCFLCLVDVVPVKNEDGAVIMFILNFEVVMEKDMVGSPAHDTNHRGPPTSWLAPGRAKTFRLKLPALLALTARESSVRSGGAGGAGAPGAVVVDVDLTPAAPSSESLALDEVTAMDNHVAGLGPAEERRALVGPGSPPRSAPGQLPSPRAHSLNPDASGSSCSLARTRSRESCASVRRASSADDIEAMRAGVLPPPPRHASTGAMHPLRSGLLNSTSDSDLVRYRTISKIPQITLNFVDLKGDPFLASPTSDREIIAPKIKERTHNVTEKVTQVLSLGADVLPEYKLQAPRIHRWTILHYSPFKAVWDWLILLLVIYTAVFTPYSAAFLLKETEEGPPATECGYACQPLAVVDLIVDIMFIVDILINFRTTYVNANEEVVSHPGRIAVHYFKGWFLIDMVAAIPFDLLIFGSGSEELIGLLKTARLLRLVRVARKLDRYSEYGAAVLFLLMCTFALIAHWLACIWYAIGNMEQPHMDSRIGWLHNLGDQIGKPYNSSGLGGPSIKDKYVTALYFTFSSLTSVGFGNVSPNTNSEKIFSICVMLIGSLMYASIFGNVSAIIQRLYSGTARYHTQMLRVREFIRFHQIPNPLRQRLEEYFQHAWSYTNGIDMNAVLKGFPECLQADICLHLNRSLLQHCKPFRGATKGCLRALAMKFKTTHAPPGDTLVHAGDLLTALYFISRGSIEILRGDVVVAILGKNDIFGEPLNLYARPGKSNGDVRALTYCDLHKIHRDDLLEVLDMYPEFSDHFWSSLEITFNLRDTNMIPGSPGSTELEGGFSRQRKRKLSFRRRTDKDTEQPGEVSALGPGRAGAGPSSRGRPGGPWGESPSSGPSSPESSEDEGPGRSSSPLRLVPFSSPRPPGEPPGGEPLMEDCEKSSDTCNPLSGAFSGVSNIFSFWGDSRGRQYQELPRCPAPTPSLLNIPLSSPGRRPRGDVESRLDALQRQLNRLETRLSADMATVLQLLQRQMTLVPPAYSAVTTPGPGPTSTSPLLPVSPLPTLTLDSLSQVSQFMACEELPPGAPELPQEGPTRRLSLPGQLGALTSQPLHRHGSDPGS

Point of comparison: `O=C(NCc1ccco1)c1cc(Cl)nc(Cl)c1`, “hERG current change (%, negative = inhibition) at 1uM” value 8.63%. Against it:
- Cc1ccc(S(=O)(=O)c2c(N)n(/N=C/c3ccco3)c3nc4ccccc4nc23)cc1C — lower, -14%
- CC(=O)Nc1ccc(S(=O)(=O)N(C)CC(=O)OCC(=O)N(C)C2CCS(=O)(=O)C2)cc1 (stereo not shown) — lower, 5.91%
- CCOC(=O)c1cnc(-n2nc(C)cc2C)nc1NC1CCCC1 — lower, 5.56%
- Cc1ccc(C(=O)CNc2cc(C)ccc2C)cc1 — higher, 16.4%
- CCOC(=O)c1cc2sccc2n1CC(=O)C(C)(C)C — lower, -2.62%
- CC(=O)c1ccc(-n2nncc2C)cc1 — lower, 7.46%
- O=C1CCN(S(=O)(=O)c2ccccc2)CCN1CCOCc1ccc(C(F)(F)F)cc1 — lower, -8.18%
- CC1(C)CCCC2=C1CC1C(=O)N(c3ccccc3)C(=O)C1C2 (stereo not shown) — lower, -5.84%
- Cc1occc1C(=O)NNS(=O)(=O)c1ccc([N+](=O)[O-])cc1 — higher, 11.7%
- Nc1nc2c(nc(SCc3ccccc3Br)n2C2OC(CO)C(O)C2O)c(=O)[nH]1 (stereo not shown) — higher, 27.1%
- CC(C)C[C@H](NS(=O)(=O)c1ccc(Br)cc1)C(=O)O — lower, 5.43%
- Cc1cccc(C(=O)N(Cc2cccs2)C2CCS(=O)(=O)C2)c1 (stereo not shown) — higher, 16.4%
- O=C(Cc1ccccc1)NCC(=O)Nc1ccc(OC(F)(F)F)cc1 — higher, 17.2%
- COc1ccc(NC2=CC(=S)NC(C)(C)C2)cc1 — higher, 12.8%
- O=C(CSc1nnc(-c2ccc(Cl)cc2)o1)NNC(=O)c1ccncc1 — higher, 10.4%
- COC(=O)c1ccc2c(c1O)C(=O)c1ccccc1C2=O — lower, 3.82%
- COc1cc(C(=O)OCCCN2CCCN(CCCOC(=O)c3cc(OC)c(OC)c(OC)c3)CC2)cc(OC)c1OC.Cl — lower, -49.1%
- CC(C)CCN1CCN(Cc2cccc(C(F)(F)F)c2)CC1CCO (stereo not shown) — lower, -17.6%
- COc1cc(CC(C)N)c(OC)cc1I.Cl (stereo not shown) — lower, -2.02%
- CC(=O)NC(c1ccco1)c1cc(Cl)c2ccc(Cl)nc2c1O (stereo not shown) — lower, -2.55%
- CN(C)CCCN(C(=O)c1ccc([N+](=O)[O-])s1)c1nc2cc3c(cc2s1)OCCO3.Cl — lower, -23.1%
- O=C(CC1C(=O)NCCN1Cc1cccc(F)c1)NCCCOc1cccnc1 (stereo not shown) — higher, 12.2%
- N#CCC(=O)Nc1ccc(C(=O)Nc2cccnc2)cc1 — lower, 7.86%
- O=C(Nc1cscc1S(=O)(=O)c1ccccc1)c1ccccc1Cl — higher, 9.29%
- Cc1ccc(NC(=O)N2C3CCCC2CC(NC(=O)C2CC2)C3)cc1 (stereo not shown) — higher, 15.4%
- CC1=NN(C(=O)CSCc2ccccc2)C(O)(c2ccc(Cl)cc2)C1 (stereo not shown) — lower, 4%
- C[C@H]1COc2c(C3(N)CC3)c(F)cc3c(=O)c(C(=O)O)cn1c23 — higher, 15.4%
- N#CCOc1coc(CN2CCN(c3ccccc3)CC2)cc1=O — higher, 13.5%
- CCOC(=O)c1c(NC(=O)c2nc3n(n2)C(C(F)F)CC(C)N3)sc2c1CCCC2 (stereo not shown) — lower, 7.5%
- COc1ccc(NC(=O)/C=C/c2ccc(OC)c(OC)c2)cn1 — lower, 8.03%
- Cn1c(CN2CCOCC2)nc2cc(NC(=O)c3ccc(Cl)cc3)ccc21 — lower, -2.15%
- CC(=O)NC1=NN(C(C)=O)C(C)(c2ccc(C)o2)S1 (stereo not shown) — higher, 10.4%
- CC(=O)N(C)c1ccc(NC(=O)Cc2cccc3ccccc23)cc1 — higher, 11.7%
- O=C(O)/C=C/C(=O)Nc1ccc(NC(=O)c2ccccc2)c(Cl)c1 — higher, 14.3%
- Cc1ccc(S(=O)(=O)Cc2ccc(C(=O)N3CCC4(CC3)OCCO4)o2)cc1 — higher, 10.5%
- O=C(CCCn1c(=O)c2sccc2n(CC(=O)NCc2ccco2)c1=O)NCc1ccco1 — lower, 0.163%
- CCOc1ccccc1NC(=O)CCn1nc(C)c(S(=O)(=O)N2CCCCC2)c1C — higher, 13.2%
- O=C(CCCCC(=O)Nc1ccccc1Cl)Nc1ccccc1Cl — higher, 18.5%
- Cc1ccc(-c2cc(C(=O)N3CCCCC3)c3ccccc3n2)cc1C — lower, 7.98%
- COc1ccc(C)cc1NC(=O)C1CCCN(S(=O)(=O)c2cnc[nH]2)C1 (stereo not shown) — higher, 13.9%
- CCCC(=O)NC(=S)Nc1cccc2c(O)cccc12 — higher, 9.3%
- O=C(Nc1ccc(S(=O)(=O)Nc2ncccn2)cc1)C(F)(F)F — higher, 19.6%
- c1ccc(Cc2nnc3sc(C4COc5ccccc5O4)nn23)cc1 (stereo not shown) — lower, -0.465%
- O=C(O)CN(c1ccccc1[N+](=O)[O-])S(=O)(=O)c1ccccc1 — higher, 21.1%
- CCOCCCn1c(SCC(=O)Nc2ccc(NC(C)=O)cc2)nc2ccccc2c1=O — lower, 8.34%
- O=C(CC1N=C2c3ccccc3N=C(SCc3ccc(Cl)cc3)N2C1=O)NCc1ccco1 (stereo not shown) — lower, -27.4%
- CC(=O)c1ccccc1N(C(=O)Cn1nnc2ccccc21)C(C(=O)NCC1CCCO1)c1ccc(N2CCOCC2)cc1 (stereo not shown) — lower, -5.24%
- O=C(COc1ccccc1)NCC(c1ccco1)N1CCN(c2ccccc2)CC1 (stereo not shown) — lower, 0.0406%
- Cc1onc(-c2ccccc2)c1C(=O)OCC(=O)Nc1ccc(Cl)cc1 — lower, 2.94%
- O=C(CSC1=NCCS1)Nc1nc(-c2ccccc2)cs1 — lower, 4.18%
- O=C(Nc1c(-c2ccccc2)nc2ccccn12)c1cccs1 — higher, 8.69%
- COc1ccc(Cl)cc1S(=O)(=O)N(C)CC(=O)N1CCCC1 — lower, 5.48%
- O=C(CN1C(=O)NC2(CCCC2)C1=O)Nc1ccc(F)cc1 — higher, 10.3%
- CC(=O)Nc1ccc(NCN2C(=O)C3C4CCC(C4)C3C2=O)cc1 (stereo not shown) — higher, 11.6%
- Cl.NC(Cc1ccc(O)cc1)c1cn([C@@H](CCC(=O)O)C(=O)N2CCNCC2)nn1 (stereo partly shown) — higher, 11.3%
- O=C(c1ccccc1)N1N=C(c2ccccc2)CC1(O)C(F)(F)F (stereo not shown) — higher, 13.6%
- O=C(NCCN1CCN(S(=O)(=O)c2ccc([N+](=O)[O-])cc2)CC1)C(=O)Nc1ccccc1 — lower, 2.87%
- COc1ccc(Cl)cc1NC(=S)NCCc1c[nH]c2ccccc12 — lower, -4.09%
- O=C(c1cc2nc(-c3ccc(Cl)cc3)cc(C(F)(F)F)n2n1)N1CCOCC1 — higher, 19.1%
- CCC(C)(C)C1CCC2(CC1)NC(=O)N(CC(=O)NCCCc1ccccc1)C2=O (stereo not shown) — lower, 6.94%
- COC(=O)c1ccc(COC(=O)CNC(=O)c2cccs2)cc1 — higher, 14.9%
- Cc1ccc(-n2c(C)cc(-c3csc(N)n3)c2C)cc1.Cl — higher, 9.73%
- COc1ccc2oc(=O)c(C(=O)n3ccc(C)n3)cc2c1 — lower, -3.05%
- CCC(OC(=O)CN1C(=O)c2ccccc2C1=O)C(=O)NC1CCCC1 (stereo not shown) — higher, 9.4%
- O=C(NCc1cccnc1)c1ccc([N+](=O)[O-])o1 — higher, 8.74%
- COc1ccc(C(=O)N2CCC(n3nccc3NC(=O)C3CCOC3)CC2)cc1 (stereo not shown) — higher, 9.41%
- CCOC(=O)C1=C(CN2CCC(C)CC2)NC(=O)NC1c1ccc(Cl)cc1 (stereo not shown) — lower, 3.37%
- COc1ccc(C(=O)OC/C(O)=C(\C#N)c2nc3ccccc3[nH]2)cc1S(=O)(=O)N1CCOCC1 — lower, 7.95%
- Cc1ccccc1OCC(=O)OCC(=O)Nc1ccc(Cl)cn1 — higher, 18.9%
- O=C1NC(c2ccccc2)C(C(=O)c2cccs2)C(O)(C(F)(F)F)N1 (stereo not shown) — lower, -3.73%
- Clc1ccc(-c2csc(N3CCC(c4ccccc4)C3)n2)cc1 (stereo not shown) — higher, 14.9%
- Cc1cc(C)n(-c2ccc(Cl)c(C(=O)NCc3ccccc3)n2)n1 — lower, 8.57%
- O=C(Nc1cccc(-c2nc3cccnc3s2)c1)c1ccc(Cl)nc1 — higher, 10.4%
- Cc1ccccc1OCC(=O)OCC(=O)N1CCCc2ccccc21 — higher, 17.3%
- Cn1c(=O)c2c(nc3n2CC(O)CN3c2ccc(O)cc2)n(C)c1=O (stereo not shown) — higher, 18.1%
- COc1ccc(Cl)cc1N(CC(=O)NC1CC2CCC1C2)S(=O)(=O)c1ccccc1 (stereo not shown) — lower, -0.203%
- Cn1c(Cn2c(=O)sc3ccccc32)nnc1SCC(N)=O — lower, -9.65%
- CC(NS(=O)(=O)c1ccc(CCC(=O)NCc2ccco2)cc1)c1ccccc1 (stereo not shown) — lower, 1.23%
- CC1CCN(C(=S)c2cccc([N+](=O)[O-])c2)CC1 — the same, 8.63%
- Cc1noc(COc2ccc(OCc3nc(C)no3)cc2)n1 — higher, 11.4%
- O=C(OCCN=C1NS(=O)(=O)c2ccccc21)c1ccccc1F — higher, 11.1%
- COc1cc(CNC(=O)c2cnc(C)cn2)cc(OC)c1 — higher, 11.9%
- CCn1c(SCC(=O)N2CCCC2)nc2c(c1=O)SCC2 — higher, 13%
- Cc1nc(C)c(CCNC(=O)c2cccc(Cl)c2)s1 — lower, 1.58%
- Cl.Oc1ccccc1/C=N/NC1=NCCCCC1 — lower, -6.02%
- CC1CCCN(CCCCOc2cccc(Br)c2)C1.O=C(O)C(=O)O (stereo not shown) — lower, -10.6%
- CS(=O)(=O)c1ccccc1C(=O)N1CCN(Cc2ccccc2)CC1 — higher, 15.1%
